# According to paper PMC4336329 (PLoS ONE, 2015):
# Screen size: about 310,000 compounds; about 14,000 (4.5%) showed an effect of 50% or more. The effect is printed as a negative number. Some of the results follow.
# Biological target: human ether-à-go-go-related gene (hERG) potassium channel (human, UniProt Q12809)
# Test: primary screen, population patch clamp on CHO cells stably expressing hERG
# Protocol: Briefly, Chinese hamster ovary (CHO) cells stably expressing the hERG channel were dislodged from tissue culture flasks and dispensed into PPC plates. […] During the recording, background leak currents were estimated by a 100 ms step to -80 mV from an initial holding potential of -70 mV and subtracted from the subsequent current measurement. The campaign was conducted in two phases using slight differences in recording protocol. In the first phase, the initial voltage pulse used a 100 ms step to -30 mV from a holding potential of -70 mV, a 2 s conditioning step to +25 mV, and a 2 s test step to -30 mV. During the second phase of the screen, the potential during the conditioning step was raised to +45 mV. In both phases of the campaign, a secondary voltage pulse was applied using the same parameters as the second phase initial pulse. The initial and secondary pulses were applied in the absence of compound, and upon application of 1 μM and 10 μM test concentrations. […]
# 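Also: peak tail current of the secondary pulse compared with the same well before compound.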
# Chain of human ether-à-go-go-related gene (hERG) potassium channel (Q12809 whole entry, looked up): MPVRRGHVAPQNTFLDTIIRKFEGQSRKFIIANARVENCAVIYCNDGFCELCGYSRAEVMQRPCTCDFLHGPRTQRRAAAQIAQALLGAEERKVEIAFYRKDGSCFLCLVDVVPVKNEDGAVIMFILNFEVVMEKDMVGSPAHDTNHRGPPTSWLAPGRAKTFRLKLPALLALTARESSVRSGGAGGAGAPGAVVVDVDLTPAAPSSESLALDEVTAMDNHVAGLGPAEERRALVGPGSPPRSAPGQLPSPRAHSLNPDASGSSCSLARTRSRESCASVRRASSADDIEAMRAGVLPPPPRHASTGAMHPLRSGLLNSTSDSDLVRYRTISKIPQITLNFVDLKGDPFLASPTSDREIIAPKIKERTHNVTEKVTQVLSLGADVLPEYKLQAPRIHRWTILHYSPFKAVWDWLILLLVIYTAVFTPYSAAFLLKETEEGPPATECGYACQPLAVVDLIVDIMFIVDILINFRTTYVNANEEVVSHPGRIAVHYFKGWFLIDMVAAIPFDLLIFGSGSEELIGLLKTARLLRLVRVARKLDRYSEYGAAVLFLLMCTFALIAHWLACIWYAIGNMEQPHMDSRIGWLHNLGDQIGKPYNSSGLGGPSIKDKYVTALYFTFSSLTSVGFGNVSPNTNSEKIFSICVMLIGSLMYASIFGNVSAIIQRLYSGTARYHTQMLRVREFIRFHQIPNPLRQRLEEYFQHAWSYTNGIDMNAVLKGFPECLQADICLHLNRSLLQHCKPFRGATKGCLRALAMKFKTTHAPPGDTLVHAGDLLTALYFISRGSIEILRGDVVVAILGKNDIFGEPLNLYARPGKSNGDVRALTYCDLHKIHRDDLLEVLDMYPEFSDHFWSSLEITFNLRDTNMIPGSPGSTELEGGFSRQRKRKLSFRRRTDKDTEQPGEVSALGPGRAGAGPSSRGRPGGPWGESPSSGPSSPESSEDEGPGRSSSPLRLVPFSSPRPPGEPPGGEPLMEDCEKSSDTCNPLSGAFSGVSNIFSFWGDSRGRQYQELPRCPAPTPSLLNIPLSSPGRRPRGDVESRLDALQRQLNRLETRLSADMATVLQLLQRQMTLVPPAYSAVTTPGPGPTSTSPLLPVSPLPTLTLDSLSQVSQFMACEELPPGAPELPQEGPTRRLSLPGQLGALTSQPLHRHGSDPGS
row,Structure (SMILES),"hERG current change (%, negative = inhibition) at 10uM [%]"
1,COc1ccc(NC(=O)NNC(=O)COc2ccc3ccccc3c2)cc1OC,17.4
2,COc1ccc(/C=C(/NC(=O)c2ccc(C)cc2)C(=O)NCC2CCCO2)cc1 (centres unmarked),-24.6
3,CCN=C1S/C(=C\c2ccc(-c3cccc(C(=O)O)c3)o2)C(=O)N1CC,61.4
4,Cc1snc2sc(C(=O)c3ccc(F)cc3)c(N)c12,-1.2
5,O=C(C1CCN(S(=O)(=O)c2ccc(Br)s2)CC1)N1CCN(C2CCCCC2)CC1,-30.9
6,Cc1cc(NC(=O)C(C)SCC(=O)O)no1 (centres unmarked),22.5
7,COc1ccccc1CCNC(=O)COc1cccc2c1OC(C)(C)C2,-11.7
8,O=C(O)C1C2CCC(C2)C1C(=O)Nc1cccc([N+](=O)[O-])c1 (centres unmarked),18.3
9,Cc1cc(OCCN2CCCCC2)nc2ccccc12.Cl,-43.6
10,O=C(N/N=C/c1c(F)c(F)c(F)c(F)c1F)c1cc(-c2ccccc2)nc2ccccc12,6.92
11,Cc1cccc(C(CC(=O)N2CCCC2)c2ccccc2)c1O (centres unmarked),-19.4
12,COc1cccc(NC(=O)C(C)(C)C)c1,-2.44
13,O=C1CCCN1CC1CCCN(Cc2nc(COc3ccccc3)no2)C1 (centres unmarked),28.6
14,CN(C)CCCOC(=O)c1ccccc1,5.26
15,COc1ccc(CCNC(=O)Cn2cc(C(F)(F)F)cc(Cl)c2=O)cc1OC,-0.415
16,COC(=O)c1c(NC(=O)CC2Nc3cc(C)c(C)cc3NC2=O)sc(C)c1C (centres unmarked),-17.2
17,O=c1c2c3c(sc2ncn1/N=C/c1ccccc1)CCCC3,3.34
18,COCc1cc(CN2CCN(CCc3ccccc3)C(CCO)C2)ccc1OC (centres unmarked),-56.9
19,CCOC(=O)/C(C#N)=C/c1c(N2CCN(c3ccc(OC)cc3)CC2)nc2c(C)cccn2c1=O,3.02
20,O=[N+]([O-])c1ccccc1OCCCCN1CCCCC1,-32.2
21,Cc1ccc(NC(=O)C(C)SCc2ccccc2)cc1 (centres unmarked),-4.2
22,CCOC(=O)c1cc(C(=O)Nc2ccc(C)c(F)c2)nn1C,3.51

row,Structure (SMILES),"hERG current change (%, negative = inhibition) at 10uM [%]"
1,Cn1nnnc1SCC(=O)Nc1cccc([N+](=O)[O-])c1,2.65
2,Cc1n[nH]c(=S)n1Cc1ccccc1,9.94
3,CC(C)(C)c1ccc(OCC(O)CN(CCO)CC(O)Cn2ccc3ccccc32)cc1 (centres unmarked),3.08
4,CCOC(=O)C1=C(C)NC2=C(C1c1ccc([N+](=O)[O-])cc1)S(=O)(=O)c1ccccc12 (centres unmarked),-31.5
5,Cc1nc(SCC(=O)NCc2cccs2)nc(C)c1C,18
6,COc1ccc(-c2cc(C(=O)N3CCN(S(=O)(=O)c4ccc(C)cc4)CC3)[nH]n2)cc1,0.242
7,Nc1nonc1-c1nc2ccccc2n1CC(=O)N1CCN(c2ccc(F)cc2)CC1,-12.3
8,COc1ccccc1-c1ccc(/C=C2/C=C(CC(C)C)OC2=O)o1,13.9
9,NCCN=C1NS(=O)(=O)c2ccccc21,0.316
10,COc1ccc(Cl)cc1NC(=S)NC(=O)c1ccco1,-31.5
11,CC(C)(C)c1ccc(C(=O)NCCC(=O)Nc2cc(Cl)ccc2N2CCOCC2)cc1,-2.31
12,Cc1nc(SCc2ccccc2C#N)n[nH]1,23.4
13,CCCCc1nnc(NC(=O)C(C)Sc2nc(C)cc(=O)[nH]2)s1 (centres unmarked),-7.17
14,Cc1cc2oc(=O)cc(Cn3nnc(-c4ccc(Cl)cc4)n3)c2cc1C(C)C,10.2
15,Cc1cccc(NC(=O)CO/N=C/c2ccc3c(c2)OCO3)c1,-10.7
16,O=C(COc1ccccc1)NNc1nc2c(F)cccc2s1,32.6
17,CC1CCN(c2cc(N3CCOCC3)c([N+](=O)[O-])cc2F)CC1,-10.3
18,Cc1cc(=O)n2nc(N3CCC(C(=O)Nc4cccc(Cl)c4C)CC3)sc2n1,-10.1
19,Cl.Fc1ccc(COc2cccc(CNCc3ccncc3)c2)cc1,-40.6
20,Cl.Cn1c(=O)c2c(nc(N3CCOCC3)n2CCCNC2=NCCCCC2)n(C)c1=O,10.5
21,CN(C)c1ccc(/C=N/NC(=O)c2ccccn2)cc1,9.64
22,CCCNC(=O)COCc1cc(-c2ccc3c(c2)OCO3)on1,0.0175
